The densities may have been worked out from excess volumes.
Assay: xn = mol fraction of the nth substance listed
Details: 101.3 kPa

CCCCCC[NH2+]CCN.O=S(=O)([N-]S(=O)(=O)C(F)(F)F)C(F)(F)F + O
mass density [kg/m3]
Details	x1 = 0.401	x1 = 0.4387	x1 = 0.5021	x1 = 0.5762	x1 = 0.6827	x1 = 0.8153	x1 = 0.8939
303.15 K	1354	1359	1355	1357	1359	1365	1375
308.15 K	1352	1356	–	1355	1354	1360	1371
313.15 K	1347	1349	1347	1349	1350	1354	1366
318.15 K	1340	1347	1340	–	1347	1351	1362
323.15 K	–	1343	1341	1338	1343	1347	1358
328.15 K	1330.5	1337	–	1335	–	1342	1353
333.15 K	1324.6	1330	1332	1332	1331	1335	1347
338.15 K	1320.4	1325.7	–	1327.1	1325.5	1329.8	1341
343.15 K	1317.5	1319.9	1325.3	1321.1	–	–	1338
348.15 K	–	1314.2	1321.2	–	1318.7	1321.1	1333
353.15 K	1306.2	1309.8	1316.3	–	1314	1317.4	1330
